From the supplement of paper PMC4967469
IC50 is the fitted dose that halves viability relative to control wells, and lower means more sensitive; where the fit passes the top or lowest dose, that dose stands as a limit. For AUC the same curve is integrated over the 256-fold range of doses and scaled to a fraction: 1 means no effect, lower means more sensitive. For some of these results: Any top dose called inferred was derived from the fitted curves, not read from the paper.

How the values were obtained:
Test in all cases: Viability of human cancer cell lines after 72 h of drug (GDSC screen)
HG-6-64-1 = compound: CCN1CCN(Cc2ccc(NC(=O)c3ccc(C)c(/C=C/c4cnc5[nH]ccc5c4OC)c3)cc2C(F)(F)F)CC1 [HG-6-64-1]; conditions: top dose 5.12 µM; top dose inferred
Description: (§1)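 Human cancer cell lines in 384-well plates, medium with 10% serum, drug for 72 h over a 256-fold dose range (nine 2-fold or five 4-fold steps up to the top dose). Adherent lines were fixed and stained with the nucleic acid dye Syto60, suspension lines read with resazurin; signal relative to control wells, capped at 0 and 100%. One two-parameter sigmoid per drug and line, fitted in a mixed model over all curves with the slope shared within a line.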

I-BET-762 = compound: CCNC(=O)C[C@@H]1N=C(c2ccc(Cl)cc2)c2cc(OC)ccc2-n2c(C)nnc21 [I-BET-762]; conditions: top dose 20 µM; top dose inferred
Description: as §1

AV-951 = compound: COc1cc2nccc(Oc3ccc(NC(=O)Nc4cc(C)on4)c(Cl)c3)c2cc1OC [AV-951]; conditions: top dose 0.128 µM; top dose inferred
Description: as §1

MS-275 = compound: Nc1ccccc1NC(=O)c1ccc(CNC(=O)OCc2cccnc2)cc1 [MS-275]; conditions: top dose 5 µM; top dose inferred
Description: as §1

KIN001-244 = compound: O=C(NC(COc1ccc2[nH]c(=O)[nH]c2c1)c1ccccc1)c1cccn(Cc2ccc(F)c(F)c2)c1=O [KIN001-244]; conditions: top dose 20 µM; top dose inferred
Description: as §1

Trametinib = compound: CC(=O)Nc1cccc(-n2c(=O)n(C3CC3)c(=O)c3c(Nc4ccc(I)cc4F)n(C)c(=O)c(C)c32)c1 [Trametinib]; conditions: top dose 1 µM
Description: as §1

PF-4708671 = compound: CCc1cncnc1N1CCN(Cc2nc3ccc(C(F)(F)F)cc3[nH]2)CC1 [PF-4708671]; conditions: top dose 10 µM; top dose inferred
Description: as §1

Cell Line | AUC (HG-6-64-1) | IC50 (HG-6-64-1) [µM] | AUC (I-BET-762) | IC50 (I-BET-762) [µM] | AUC (AV-951) | IC50 (AV-951) [µM] | AUC (MS-275) | IC50 (MS-275) [µM] | AUC (KIN001-244) | IC50 (KIN001-244) [µM] | AUC (Trametinib) | IC50 (Trametinib) [µM] | AUC (PF-4708671) | IC50 (PF-4708671) [µM]
HCC-33 (small cell lung carcinoma, adherent) | 0.967 | > 5.12 | 0.848 | 15.2 | 0.985 | > 0.128 | 0.489 | 0.291 | 0.957 | > 20 |  |  |  | 
IM-9 (myeloma, suspension) | 0.955 | > 5.12 |  |  |  |  | 0.985 | > 5 |  |  | 0.585 | 0.103 | 0.912 | > 10
KARPAS-231 (B-cell leukaemia, suspension) | 0.335 | 0.126 |  |  | 0.926 | 0.125 | 0.392 | 0.169 |  |  | 0.993 | > 1 | 0.979 | > 10
KASUMI-1 (acute myeloid leukaemia, suspension) | 0.306 | 0.0913 |  |  | 0.347 | 0.00301 | 0.985 | > 5 |  |  | 0.315 | 0.019 | 0.95 | > 10
KP-N-YS (neuroblastoma, adherent) | 0.839 | 4.24 | 0.829 | 15 | 0.962 | > 0.128 | 0.922 | > 5 | 0.861 | > 20 |  |  |  | 
L-363 (myeloma, suspension) | 0.951 | > 5.12 |  |  | 0.99 | > 0.128 | 0.608 | 0.591 | 0.9 | 19.6 | 0.962 | > 1 | 0.926 | > 10
LB373-MEL-D (melanoma, adherent) |  |  | 0.987 | > 20 | 0.99 | > 0.128 | 0.81 | 2.56 | 0.886 | > 20 | 0.445 | 0.0445 | 0.99 | > 10
LOUCY (T-cell lymphoblastic leukaemia, suspension) | 0.956 | > 5.12 |  |  | 0.986 | > 0.128 | 0.624 | 0.639 | 0.809 | 8.17 | 0.944 | > 1 | 0.962 | > 10
LS-411N (large intestine, adherent) | 0.731 | 1.7 | 0.646 | 3.47 | 0.963 | > 0.128 | 0.683 | 1.14 | 0.865 | > 20 |  |  | 0.95 | > 10
MHH-NB-11 (neuroblastoma, adherent) | 0.96 | > 5.12 | 0.841 | 15.9 | 0.966 | > 0.128 | 0.576 | 0.517 | 0.89 | > 20 |  |  |  | 
MOLP-8 (myeloma, suspension) | 0.667 | 0.912 | 0.349 | 0.487 | 0.986 | > 0.128 | 0.614 | 0.635 | 0.641 | 3.01 |  |  | 0.981 | > 10
